Reference: the supplement of paper PMC12217912
Some of the results follow. Sequences were assembled here from the parent chain. Values near 0.05 are background.

B1: TEV protease; numbered along this chain (parent)
chain: MGESLFKGPRDYNPISSSICHLTNESDGHTTSLYGIGFGPFIITNKHLFRRNNGTLVVQSLHGVFKVKDTTTLQQHLVDGRDMIIIRMPKDFPPFPQKLKFREPQREERICLVTTNFQTKSMSSMVSDTSCTFPSGDGIFWKHWIQTKDGQCGSPLVSTRDGFIVGIHSASNFTNTNNYFTSVPKNFMELLTNQEAQQWVSGWRLNADSVLWGGHKVFMVKPEEPFQPVKEATQL

Variants of: B1
Experiment: raw area under fraction-flipped curve 0-4 h after induction (AUC4h, not background-subtracted), DNA-recorder readout of cleavage of the substrate (dimensionless); higher = more cleavage of the substrate by the protease variant
Details: temperature: 34 °C; time window: 0-4 h after rhamnose induction
Description: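 In vivo DNA recorder in E. coli TOP10(DE3) ΔrhaA at 34 °C. Each TEVp single-site mutant (parent TEVp 0) is paired with a single-site variant of the 7-mer TEVs (canonical ENLYFQ|S). The substrate sits between flexible linkers in a Bxb1-sfGFP-TEVs-SsrA fusion, so cleavage stabilises Bxb1 and speeds flipping of a recombination array, read by NGS. The value is the raw area under the fraction-flipped curve over 0-4 h after rhamnose induction (AUC4h), with ≥20 reads per time point. It is not background-subtracted; inactive controls average about 0.047.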
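Note: Bxb1 expression induced with 0.2% (w/v) L-rhamnose at OD600 near 0.5, cultures sampled hourly, flipped fraction per protease–substrate barcode pair counted by paired-end Illumina sequencing.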

| Variant | area with substrate ENLYAQS | area with substrate ENLYCQS | area with substrate ENLYDQS | area with substrate ENLYPQS | area with substrate ENLYSQS | area with substrate ENLYTQS | area with substrate ENLYEQS | area with substrate ENLYGQS | area with substrate ENLYHQS | area with substrate ENLYKQS |
| --- | --- | --- | --- | --- | --- | --- | --- | --- | --- | --- |
| MGESLFKGPRDYNPISSSICHLTNESDGHTTSLYGIGFGPFIITNKHLFRRNNGTLVVQSLHGVFKVKDTTTLQQHLVDGRDMIIIRMPKDFPPFPQKLKFREPQREERICLVTTNFQTKSMSSMVSDTSCTFPSGDGIFWKHWIQTKDGQCGSPLVSTRDGFIVGIHSISNFTNTNNYFTSVPKNFMELLTNQEAQQWVSGWRLNADSVLWGGHKVFMVKPEEPFQPVKEATQL [A170I] | 0.123 | 0.0466 | 0.0304 | 0.0726 | 0.0969 | 0.0556 |  |  |  |  |
| MGESLFKGPRDYNPISSSICHLTNESDGHTTSLYGIGFGPFIITNKHLFRRNNGTLVVQSLHGVFKVKDTTTLQQHLVDGRDMIIIRMPKDFPPFPQKLKFREPQREERICLVTTNFQTKSMSSMVSDTSCTFPSGDGIFWKHWIQTKDGQCGSPLVSTRDGFIVGIHSAYNFTNTNNYFTSVPKNFMELLTNQEAQQWVSGWRLNADSVLWGGHKVFMVKPEEPFQPVKEATQL [S171Y] | 0.071 |  | 0.0685 |  | 0.0555 | 0.0593 | 0.0572 | 0.0578 | 0.0436 | 0.0653 |
| MGESLFKGPRDYNPISSSICHLTNESDGHTTSLYGIGFGPFIITNKHLFRRNNGTLVVQSLHGVFKVKDTTTLQQHLVDGRDMIIIRMPKDFPPFPQKLKFREPQREERICLVTTNFQTKSMSSMVSDTSCTFPSGDGIFWKHWIQTKDGQCGSPLVSTRDGFIVGIHSASRFTNTNNYFTSVPKNFMELLTNQEAQQWVSGWRLNADSVLWGGHKVFMVKPEEPFQPVKEATQL [N172R] | 0.0507 |  | 0.0601 | 0.0636 |  |  | 0.0556 | 0.0649 |  |  |
| MGESLFKGPRDYNPISSSICHLTNESDGHTTSLYGIGFGPFIITNKHLFRRNNGTLVVQSLHGVFKVKDTTTLQQHLVDGRDMIIIRMPKDFPPFPQKLKFREPQREERICLVTTNFQTKSMSSMVSDTSCTFPSGDGIFWKHWIQTKDGQCGSPLVSTRDGFIVGIHSASNFTNQNNYFTSVPKNFMELLTNQEAQQWVSGWRLNADSVLWGGHKVFMVKPEEPFQPVKEATQL [T176Q] | 0.0656 |  |  |  | 0.0666 |  | 0.0733 | 0.0716 | 0.0694 | 0.0241 |
| MGESLFKGPRDYNPISSSICHLTNESDGHTTSLYGIGFGPFIITNKHLFRRNNGTLVVQSLHGVFKVKDTTTLQQHLVDGRDMIIIRMPKDFPPFPQKLKFREPQREERICLVTTNFQTKSMSSMVSDTSCTFPSGDGIFWKHWIQTKDGQCGSPLVSTRDGFIVGIHSASNFTNTMNYFTSVPKNFMELLTNQEAQQWVSGWRLNADSVLWGGHKVFMVKPEEPFQPVKEATQL [N177M] | 0.0368 |  | 0.0537 |  |  |  | 0.0604 |  |  | 0.0631 |
| MGESLFKGPRDYNPISSSICHLTNESDGHTTSLYGIGFGPFIITNKHLFRRNNGTLVVQSLHGVFKVKDTTTLQQHLVDGRDMIIIRMPKDFPPFPQKLKFREPQREERICLVTTNFQTKSMSSMVSDTSCTFPSGDGIFWKHWIQTKDGQCGSPLVSTRDGFIVGIHSASNFTNTNCYFTSVPKNFMELLTNQEAQQWVSGWRLNADSVLWGGHKVFMVKPEEPFQPVKEATQL [N178C] | 0.0679 |  |  |  |  |  | 0.0586 |  | 0.068 |  |
| MGESLFKGPRDYNPISSSICHLTNESDGHTTSLYGIGFGPFIITNKHLFRRNNGTLVVQSLHGVFKVKDTTTLQQHLVDGRDMIIIRMPKDFPPFPQKLKFREPQREERICLVTTNFQTKSMSSMVSDTSCTFPSGDGIFWKHWIQTKDGQCGSPLVSTRDGFIVGIHSASNFTNTNNYHTSVPKNFMELLTNQEAQQWVSGWRLNADSVLWGGHKVFMVKPEEPFQPVKEATQL [F180H] | 0.0732 |  |  |  |  |  | 0.0858 |  | 0.0673 |  |
| MGESLFKGPRDYNPISSSICHLTNESDGHTTSLYGIGFGPFIITNKHLFRRNNGTLVVQSLHGVFKVKDTTTLQQHLVDGRDMIIIRMPKDFPPFPQKLKFREPQREERICLVTTNFQTKSMSSMVSDTSCTFPSGDGIFWKHWIQTKDGQCGSPLVSTRDGFIVGIHSASNFTNTNNYFKSVPKNFMELLTNQEAQQWVSGWRLNADSVLWGGHKVFMVKPEEPFQPVKEATQL [T181K] | 0.0545 |  | 0.0595 | 0.0592 |  |  |  | 0.0619 |  | 0.0575 |
| MGESLFKGPRDYNPISSSICHLTNESDGHTTSLYGIGFGPFIITNKHLFRRNNGTLVVQSLHGVFKVKDTTTLQQHLVDGRDMIIIRMPKDFPPFPQKLKFREPQREERICLVTTNFQTKSMSSMVSDTSCTFPSGDGIFWKHWIQTKDGQCGSPLVSTRDGFIVGIHSASNFTNTNNYFTSGPKNFMELLTNQEAQQWVSGWRLNADSVLWGGHKVFMVKPEEPFQPVKEATQL [V183G] | 0 |  |  | 0.049 | 0.038 | 0.0549 | 0.0588 |  | 0.0405 |  |
| MGESLFKGPRDYNPISSSICHLTNESDGHTTSLYGIGFGPFIITNKHLFRRNNGTLVVQSLHGVFKVKDTTTLQQHLVDGRDMIIIRMPKDFPPFPQKLKFREPQREERICLVTTNFQTKSMSSMVSDTSCTFPSGDGIFWKHWIQTKDGQCGSPLVSTRDGFIVGIHSASNFTNTNNYFTSVPKFFMELLTNQEAQQWVSGWRLNADSVLWGGHKVFMVKPEEPFQPVKEATQL [N186F] | 0.07 |  |  |  |  |  |  |  |  |  |
| MGESLFKGPRDYNPISSSICHLTNESDGHTTSLYGIGFGPFIITNKHLFRRNNGTLVVQSLHGVFKVKDTTTLQQHLVDGRDMIIIRMPKDFPPFPQKLKFREPQREERICLVTTNFQTKSMSSMVSDTSCTFPSGDGIFWKHWIQTKDGQCGSPLVSTRDGFIVGIHSASNFTNTNNYFTSVPKNAMELLTNQEAQQWVSGWRLNADSVLWGGHKVFMVKPEEPFQPVKEATQL [F187A] | 0.0578 |  | 0.0671 | 0.0551 | 0.0692 |  | 0.0517 | 0.112 | 0.0556 | 0.0574 |

Same assay, conditions: temperature: 34 °C; time window: 0-4 h after rhamnose induction

| Variant | area with substrate ENLYMQS | area with substrate ENLYNQS | area with substrate ENLYQQS | area with substrate ENLYRQS | area with substrate ENLYVQS | area with substrate ENLYYQS | area with substrate ENLYLQS | area with substrate ENLYWQS | area with substrate ENLYIQS |
| --- | --- | --- | --- | --- | --- | --- | --- | --- | --- |
| MGESLFKGPRDYNPISSSICHLTNESDGHTTSLYGIGFGPFIITNKHLFRRNNGTLVVQSLHGVFKVKDTTTLQQHLVDGRDMIIIRMPKDFPPFPQKLKFREPQREERICLVTTNFQTKSMSSMVSDTSCTFPSGDGIFWKHWIQTKDGQCGSPLVSTRDGFIVGIHSAYNFTNTNNYFTSVPKNFMELLTNQEAQQWVSGWRLNADSVLWGGHKVFMVKPEEPFQPVKEATQL [S171Y] | 0.0662 | 0.0618 | 0.0505 | 0.0762 | 0.0661 | 0.0365 |  |  |  |
| MGESLFKGPRDYNPISSSICHLTNESDGHTTSLYGIGFGPFIITNKHLFRRNNGTLVVQSLHGVFKVKDTTTLQQHLVDGRDMIIIRMPKDFPPFPQKLKFREPQREERICLVTTNFQTKSMSSMVSDTSCTFPSGDGIFWKHWIQTKDGQCGSPLVSTRDGFIVGIHSASRFTNTNNYFTSVPKNFMELLTNQEAQQWVSGWRLNADSVLWGGHKVFMVKPEEPFQPVKEATQL [N172R] |  |  | 0.0655 | 0.0535 |  | 0.0753 | 0.0484 |  |  |
| MGESLFKGPRDYNPISSSICHLTNESDGHTTSLYGIGFGPFIITNKHLFRRNNGTLVVQSLHGVFKVKDTTTLQQHLVDGRDMIIIRMPKDFPPFPQKLKFREPQREERICLVTTNFQTKSMSSMVSDTSCTFPSGDGIFWKHWIQTKDGQCGSPLVSTRDGFIVGIHSASNFTNQNNYFTSVPKNFMELLTNQEAQQWVSGWRLNADSVLWGGHKVFMVKPEEPFQPVKEATQL [T176Q] | 0.0529 | 0.0436 | 0.0559 | 0.0527 |  | 0.0926 |  |  |  |
| MGESLFKGPRDYNPISSSICHLTNESDGHTTSLYGIGFGPFIITNKHLFRRNNGTLVVQSLHGVFKVKDTTTLQQHLVDGRDMIIIRMPKDFPPFPQKLKFREPQREERICLVTTNFQTKSMSSMVSDTSCTFPSGDGIFWKHWIQTKDGQCGSPLVSTRDGFIVGIHSASNFTNTMNYFTSVPKNFMELLTNQEAQQWVSGWRLNADSVLWGGHKVFMVKPEEPFQPVKEATQL [N177M] |  | 0.0799 |  |  |  | 0.0557 |  | 0.0968 |  |
| MGESLFKGPRDYNPISSSICHLTNESDGHTTSLYGIGFGPFIITNKHLFRRNNGTLVVQSLHGVFKVKDTTTLQQHLVDGRDMIIIRMPKDFPPFPQKLKFREPQREERICLVTTNFQTKSMSSMVSDTSCTFPSGDGIFWKHWIQTKDGQCGSPLVSTRDGFIVGIHSASNFTNTNNYHTSVPKNFMELLTNQEAQQWVSGWRLNADSVLWGGHKVFMVKPEEPFQPVKEATQL [F180H] |  | 0.0629 | 0.0782 |  |  |  |  |  |  |
| MGESLFKGPRDYNPISSSICHLTNESDGHTTSLYGIGFGPFIITNKHLFRRNNGTLVVQSLHGVFKVKDTTTLQQHLVDGRDMIIIRMPKDFPPFPQKLKFREPQREERICLVTTNFQTKSMSSMVSDTSCTFPSGDGIFWKHWIQTKDGQCGSPLVSTRDGFIVGIHSASNFTNTNNYFKSVPKNFMELLTNQEAQQWVSGWRLNADSVLWGGHKVFMVKPEEPFQPVKEATQL [T181K] | 0.0583 |  |  |  | 0.113 | 0.0516 |  |  |  |
| MGESLFKGPRDYNPISSSICHLTNESDGHTTSLYGIGFGPFIITNKHLFRRNNGTLVVQSLHGVFKVKDTTTLQQHLVDGRDMIIIRMPKDFPPFPQKLKFREPQREERICLVTTNFQTKSMSSMVSDTSCTFPSGDGIFWKHWIQTKDGQCGSPLVSTRDGFIVGIHSASNFTNTNNYFTSGPKNFMELLTNQEAQQWVSGWRLNADSVLWGGHKVFMVKPEEPFQPVKEATQL [V183G] |  | 0.0356 |  |  | 0.072 | 0.0568 |  | 0.0179 |  |
| MGESLFKGPRDYNPISSSICHLTNESDGHTTSLYGIGFGPFIITNKHLFRRNNGTLVVQSLHGVFKVKDTTTLQQHLVDGRDMIIIRMPKDFPPFPQKLKFREPQREERICLVTTNFQTKSMSSMVSDTSCTFPSGDGIFWKHWIQTKDGQCGSPLVSTRDGFIVGIHSASNFTNTNNYFTSVPKFFMELLTNQEAQQWVSGWRLNADSVLWGGHKVFMVKPEEPFQPVKEATQL [N186F] |  | 0.0926 |  | 0.0424 | 0.139 |  |  |  |  |
| MGESLFKGPRDYNPISSSICHLTNESDGHTTSLYGIGFGPFIITNKHLFRRNNGTLVVQSLHGVFKVKDTTTLQQHLVDGRDMIIIRMPKDFPPFPQKLKFREPQREERICLVTTNFQTKSMSSMVSDTSCTFPSGDGIFWKHWIQTKDGQCGSPLVSTRDGFIVGIHSASNFTNTNNYFTSVPKNAMELLTNQEAQQWVSGWRLNADSVLWGGHKVFMVKPEEPFQPVKEATQL [F187A] | 0.0566 | 0.0562 |  |  | 0.121 |  |  | 0.0718 | 0.0871 |
